In PubChem BioAssay AID463173 (ICCB-Longwood Screening Facility, Harvard Medical School, 2010):
Screen size: about 52,000 compounds; about 1,700 (3.3%) were called active. Rule as the data show it: active = survival mostly below about 52% (no sharp cut-off); inactive = mostly above about 56%. The list shows a part of the results.

The compounds below were run on Wild type (assay: growth inhibition of S. aureus wild type versus tarO mutant, primary screen, teichoic acid synthesis inhibitors, RN4220, OD600 (AID 463173)). Settings: S. aureus RN4220 wild type/DeltatarO growth, OD600, 18 h, hits give low values, screened at 18.75 µg/mL (by protocol).

Structure (SMILES) | survival
COCCNC(=S)N1CCC(NC(C)=O)CC1 | inactive: 100%
CCc1ccc(Cn2nnc(C(=O)Nc3ccc(C)cc3)c2N)cc1 | inactive: 142%
CC(C)c1ccc(NC(=O)C2CCCN(S(=O)(=O)c3ccc4[nH]c(=O)ccc4c3)C2)cc1 (centres undefined) | inactive: 109%
COc1ccc2nc(Cl)c(CNC3CCCC3)cc2c1 | inactive: 101%
CCOc1cccc(C(=O)Nc2ccc(NC(=O)c3ccc(Br)cc3)cc2)c1 | inactive: 168%
CCOC(=O)c1ccc(NC(=O)CC2C(=O)N(c3ccccc3)C(=O)N2C2CCCCC2)cc1 (centres undefined) | inactive: 69%
CCN(c1ccc(C)cc1C)S(=O)(=O)c1nnc(NC(=O)c2ccccc2OC)s1 | inactive: 58%
CCOC(=O)c1oc2ccc(S(=O)(=O)n3nc(-c4cc(OCC)c(OCC)c(OCC)c4)cc3N)cc2c1C | inactive: 83%
O=C(CSc1nnc(-c2ccccc2)o1)Oc1ccc(Br)cc1 | inactive: 98%
O=C(CSc1oc(-c2ccco2)nc1S(=O)(=O)c1ccccc1)c1ccc(Cl)cc1 | inactive: 67%
COc1cccc(/C=N/NC(=O)c2cccc(C)c2)c1O | active: 1%
COc1ccc(-n2cc(-c3ccccc3)c3c(NCCc4ccc(OC)c(OC)c4)ncnc32)cc1 | inactive: 135%
CCN1CCN(c2cc3c(cc2F)c(=O)c(S(=O)(=O)c2cc(C)cc(C)c2)cn3CC)CC1 | active: -3%
CCOC(=O)c1ccc(NC(=O)c2c(NCc3cc(OC)c(OC)cc3OC)sc3c2CCCC3)cc1 | inactive: 85%
CCc1ccc(N2CCn3c2nc2c3c(=O)n(CCCc3ccccc3)c(=O)n2C)cc1 | inactive: 88%
CCCc1cnc2c(c1SCC(=O)Nc1cccc(C)c1C)c(=O)n(C)c(=O)n2C | inactive: 73%
CC(C)NC(=O)C1CCN(Cc2ccccc2Cl)CC1 | inactive: 114%
COc1ccc(NC(=O)Cn2nnc(C(=O)Nc3ccc(C)c(F)c3)c2N)cc1Cl | inactive: 128%
CC1=C(C(=O)OCC2CCCCC2)C(c2cccc(F)c2F)CC(=O)N1 (centres undefined) | inactive: 89%
Cn1c(=O)oc2cc(S(=O)(=O)N3CCCC(C(=O)N4CCN(c5cccc(Cl)c5)CC4)C3)ccc21 (centres undefined) | inactive: 73%
O=C(NCCCCc1ccccc1)c1nn(-c2ccccc2)nc1CO | inactive: 74%
Cc1ccc(-n2c(-c3ccco3)nc3c(cnn3-c3ccc(C)cc3)c2=O)cc1 | inactive: 92%
O=C(Cc1ccccc1F)N1CCC(c2nc3c(nnn3Cc3cccc(Cl)c3)c(=O)[nH]2)CC1 | inactive: 67%

Structure (SMILES) | survival
Cc1cc(C)cc(OCCn2c(CCNC(=O)C3CCCCC3)nc3ccccc32)c1 | inactive: 105%
O=C(CC1(O)C(=O)N(Cc2ccccc2)c2ccc(Br)cc21)c1ccccc1 (centres undefined) | inactive: 30%
COc1ccc(CNC(=O)CN(c2ccc(OC)cc2)S(=O)(=O)c2c(C)[nH]c(=O)[nH]c2=O)cc1 | inactive: 85%
CCOc1ccc(NC(=O)c2c(NC(=O)c3ccccc3Br)sc3c2CCC(C)C3)cc1 (centres undefined) | inactive: 80%
COc1ccccc1OCCSc1nc(C)cc(C)n1 | inactive: 106%
Clc1ccc(NC2CCCCC2)nn1 | inactive: 110%
COc1ccc(OC)c(NC(=O)N(C)CCc2c(C)nn(C)c2C)c1 | inactive: 59%
CCC(=O)N1CCc2cc(Br)cc(S(=O)(=O)N(CC)Cc3ccccc3)c21 | inactive: 73%
CCOc1ccc(NC(=O)CC2C(=O)N(c3ccc(C)cc3)C(=O)N2Cc2ccc(OC)cc2)cc1 (centres undefined) | inactive: 75%
Cc1nc(-c2cccc(F)c2)sc1CCNC(=O)C(=O)Nc1ccc2c(c1)OCO2 | inactive: 138%
Cc1cccc(N2CCN(c3ncnc4onc(C)c34)CC2C)c1 (centres undefined) | inactive: 73%
CCc1cccc(C)c1NC(=O)c1cn2c3c(ccc(Cl)c3c1=O)OC(C)C2 (centres undefined) | inactive: 127%
Cc1ccc(-c2nc3ncccc3o2)cc1NC(=O)c1ccc(-c2cccc(Cl)c2C)o1 | inactive: 68%
Cc1cc(-c2nc3ncccc3o2)ccc1NC(=O)c1ccc(Cl)cc1 | inactive: 92%
O=C(CC12CC3CC(CC(C3)C1)C2)NCc1ccco1 | inactive: 117%
COC(=O)CSc1ccc2nnc(CCNS(=O)(=O)c3ccccc3)n2n1 | inactive: 109%
CCCCN(C)S(=O)(=O)c1cc(-c2cc(C)no2)ccc1C | inactive: 72%
CCOc1ccc(S(=O)(=O)NCC(c2ccc(N(C)C)cc2)N2CCc3ccccc32)cc1 (centres undefined) | inactive: 22%
COc1ccc(-c2cccc(NS(=O)(=O)c3cc(C)ccc3OC)c2)nn1 | inactive: 127%
CCc1cccc(C)c1NS(=O)(=O)c1ccc(-c2cc(C)no2)s1 | inactive: 78%
Cc1cccc(NC(=O)c2c(N)sc3c2CCC(C)C3)c1 (centres undefined) | inactive: 66%
COc1ccc(C(=O)NCC(c2ccco2)S(=O)(=O)c2cccs2)cc1 (centres undefined) | inactive: 73%
N#Cc1nc(/C=C/c2ccc(F)cc2)oc1NC1CCCCC1 | inactive: 88%

Structure (SMILES) | survival
CS(=O)(=O)N1CCN(c2ccc(NC(=O)c3ccc4c(c3)OCO4)cc2)CC1 | inactive: 99%
Cc1ccccc1NC(=O)c1c(NC(=O)c2cccs2)sc2c1CCC(C)C2 (centres undefined) | inactive: 71%
O=C(Nc1ccc2nn(-c3ccc(Cl)cc3)nc2c1)c1cc2ccccc2o1 | inactive: 76%
Cc1ccccc1Nc1c(-c2ccc(N3CCOCC3)cc2)nc2ccc(Cl)cn12 | inactive: 124%
Cn1c(=O)n(C)c2cc(N3CCCCC3)c(NC(=O)c3c(F)cccc3F)cc21 | inactive: 82%
COc1ccc(N(C)C(=O)C2CCN(S(=O)(=O)c3cc(Br)cc4c3N(C(C)=O)CC4)CC2)cc1 | inactive: 95%
Cc1ccc(OCc2cc(=O)n3ccsc3n2)c(NC(=O)c2ccco2)c1 | inactive: 82%
COc1ccc(-c2nc3cc(NC(=O)c4cc5ccccc5o4)ccc3o2)cc1 | inactive: 80%
CCOC(=O)c1cc(-c2ccccc2)n(CCC(=O)NCCc2ccc(OC)c(OC)c2)c1C | inactive: 71%
Cc1ccn2c(Nc3ccccc3C)c(-c3ccccc3)nc2c1 | active: -3%
COc1ccc(S(=O)(=O)N2CCC(C(=O)NC3CC3)CC2)cc1Cl | inactive: 108%
CCn1ccc2cc(S(=O)(=O)N3CCC(C(=O)NCc4ccc(F)cc4)CC3)ccc21 | inactive: 80%
Cc1ccc(NCc2cccn2-c2nnc(N3CCC(C(=O)NCc4ccc(F)cc4)CC3)s2)cc1 | inactive: 101%
Cc1ccc(NC(=O)CSc2nnc(COc3ccc(Cl)cc3)o2)c(C)c1 | inactive: 91%
O=C(Nc1ccc2nc(SCC(=O)N3CCOCC3)sc2c1)c1ccccc1Cl | inactive: 82%
Cc1cccc(OCC(=O)Nc2ccccc2OCc2cc(=O)n3cc(C)ccc3n2)c1 | inactive: 87%
O=C(Cn1c(=O)n2nc(-c3cccc(F)c3)nc2c2ccccc21)NCc1ccc(Cl)cc1 | inactive: 66%
COc1cccc(NC(=O)Cn2c(=O)n(Cc3ccco3)c(=O)c3cc(OC)c(OC)cc32)c1 | inactive: 138%
CCc1ccc(NC(=O)CSc2ccccn2)cc1 | inactive: 102%
CN(C)c1ccc(C(=O)NCc2ccc3c(c2)CCN3C(=O)c2ccccc2)cc1 | inactive: 119%
CC(C)CCNC(=O)CSc1nc2ccccc2nc1Cc1ccc(Cl)cc1 | inactive: 71%
CSc1ccc(CNC(=O)Cn2ccc3cc(S(=O)(=O)N4CCCC4)ccc32)cc1 | inactive: 83%
COc1ccccc1CNC(=O)CS(=O)(=O)Cc1nc(-c2ccccc2C)oc1C | inactive: 75%

Structure (SMILES) | survival
Cc1cc(C)cc(NC(=O)CCN2C(=O)c3ccccc3Sc3ncccc32)c1 | inactive: 87%
CC1CCN(c2nc(-c3ccc(Br)cc3)nc3ccccc23)CC1 | inactive: 105%
CN(C)c1ccc(CNC(=O)c2sc3ncccc3c2-n2cccc2)cc1 | inactive: 75%
CCN(C(=O)CC(C)C)c1nnc(-c2ccccc2C)s1 | inactive: 96%
Cc1ccc(-c2cc(C(F)(F)F)c(C#N)c(SCC(=O)Nc3ccccc3F)n2)cc1 | inactive: 73%
CCN(c1ncnc2c1cnn2-c1cccc(Cl)c1)C1CCCCC1 | inactive: 45%
CC1CCCCN1CCCNC(=O)Cn1ncc2c3ccccc3n(Cc3ccccc3F)c2c1=O (centres undefined) | inactive: 90%
COc1cc(Cl)c(NS(=O)(=O)c2ccc(-c3coc(C)n3)cc2)c(OC)c1 | inactive: 69%
COc1ccc(C2C(=O)N(C3CCCCC3)CC(=O)N2C2CCCCC2)cc1 (centres undefined) | inactive: 76%
COc1cccc(CNC(=O)CN2C(=O)CSc3ccc(S(=O)(=O)N4CCCC4)cc32)c1 | inactive: 94%
COCCn1c(C)cc(O)c(C(c2ccc(Cl)cc2)N2CCCCC2)c1=O (centres undefined) | inactive: 84%
Cc1cc(C)c(NC(=O)CN2C(=O)CCSc3ccc(S(=O)(=O)N4CCCC4)cc32)c(C)c1 | inactive: 82%
O=C(c1ccccc1)N1CCCCC1CCN1CCCCC1 (centres undefined) | inactive: 86%
O=C(Nc1ccc2nc(SCC(=O)N3CCOCC3)sc2c1)c1ccc(Cl)cc1 | inactive: 79%
CCN(Cc1ccccc1)C(=O)C(CC(C)C)NS(=O)(=O)c1ccc2c(c1)CCN2C(C)=O (centres undefined) | inactive: 74%
Cc1cccc(N2CCN(C(=O)c3nn(C)c4c3CS(=O)(=O)c3ccccc3-4)CC2C)c1 (centres undefined) | inactive: 82%
CN(C)c1ccc(Cl)nn1 | inactive: 119%
Cc1ccc(-n2c(=O)c3ccccc3n(CC(=O)Nc3cccc(C(F)(F)F)c3)c2=O)cc1 | inactive: 78%
N#C/C(=C\c1ccc(Cl)cc1)c1nc(-c2cc3c(ccc4ccccc43)oc2=O)cs1 | inactive: 69%
O=C(Cn1c(=O)n(-c2ccccc2)c(=O)c2sc3ccccc3c21)NC1CCCC1 | inactive: 138%
